From the supplement of paper PMC3334620
In all, about 33,000 sequences were measured (“E-score (-0.5 to 0.5)”: median about -0.041, highest 2% from about 0.37 on). The list shows a part of the results.

Molecular target: T1, Ecm22 (UniProt Q05958)
T1 sequence: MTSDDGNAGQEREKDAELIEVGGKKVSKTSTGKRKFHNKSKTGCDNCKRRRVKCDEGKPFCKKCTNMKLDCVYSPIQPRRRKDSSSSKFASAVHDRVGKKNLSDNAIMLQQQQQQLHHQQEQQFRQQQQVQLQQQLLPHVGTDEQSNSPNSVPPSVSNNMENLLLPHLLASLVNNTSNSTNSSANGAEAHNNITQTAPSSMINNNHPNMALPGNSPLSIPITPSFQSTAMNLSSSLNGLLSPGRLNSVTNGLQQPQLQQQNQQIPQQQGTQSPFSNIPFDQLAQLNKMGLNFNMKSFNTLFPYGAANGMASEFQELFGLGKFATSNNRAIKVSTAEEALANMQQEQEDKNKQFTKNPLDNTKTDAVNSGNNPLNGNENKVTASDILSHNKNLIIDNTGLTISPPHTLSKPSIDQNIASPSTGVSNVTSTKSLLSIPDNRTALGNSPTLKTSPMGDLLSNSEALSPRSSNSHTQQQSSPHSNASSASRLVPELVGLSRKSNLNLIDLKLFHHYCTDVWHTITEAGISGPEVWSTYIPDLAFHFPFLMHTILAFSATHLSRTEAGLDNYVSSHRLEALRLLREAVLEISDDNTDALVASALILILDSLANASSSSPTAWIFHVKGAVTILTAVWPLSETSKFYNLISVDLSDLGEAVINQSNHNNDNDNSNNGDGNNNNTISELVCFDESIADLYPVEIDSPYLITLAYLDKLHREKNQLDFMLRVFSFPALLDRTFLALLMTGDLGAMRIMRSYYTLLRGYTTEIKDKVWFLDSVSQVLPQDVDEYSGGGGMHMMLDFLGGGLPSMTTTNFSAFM
Experiment: PBM E-score (8-mer binding enrichment) (E-score (-0.5 to 0.5)); higher = stronger / more preferred TF binding; most listed sequences are background and not binding sites
Conditions: protein concentration: 200 nM; construct: GST-full length
Outline: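 Yeast transcription factors, full-length or as DNA-binding domains, were expressed with a GST tag using PURExpress in vitro transcription/translation. At about 100-200 nM they were applied to universal all-10-mer Agilent arrays, double-stranded by primer extension on fresh or once-stripped slides. Fluorescent anti-GST detected bound protein, and masliner normalised the scans. E-scores for ungapped eight-base words, pooled with reverse complements, came from the Universal PBM Analysis Suite.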

Point of comparison: AATTCATG, “PBM E-score” value 0.0523. Against it:
- CGACCGAA — higher, 0.161
- ATGAACAG — lower, -0.0283
- CAGGCGTC — lower, -0.1
- ACTGACAG — higher, 0.152
- AGGCTGAC — lower, -0.219
- CCATAATC — lower, -0.223
- AAGCTAGC — lower, -0.0471
- ATGCCGTG — lower, -0.166
- ACGAGAGT — higher, 0.328
- CAATCGAC — lower, -0.249
- AGCTTAGC — lower, -0.131
- AAAGCTGA — lower, -0.21
- GTTATTTA — higher, 0.101
- AGGTTTCC — lower, -0.187
- CTCCTCCA — lower, -0.113
- AGAGGAAC — lower, 0.00169
- ATGAATAG — higher, 0.174
- AGCGTTAG — lower, -0.102
- CCCTTAGG — lower, -0.159
- GTGAAAAA — lower, -0.0736
- AGACGGTG — lower, -0.132
- CAGCAATG — lower, -0.198
- CAAGACAG — lower, -0.297
- ACGAGTTC — higher, 0.319
- CTACCTTC — lower, -0.0409
- ACACAGAT — lower, -0.115
- CCCAGCGA — lower, -0.105
- GGCCAACA — lower, -0.0839
- GCCGCCGC — lower, -0.202
- ATGCCGAC — lower, -0.00097
- CTACTAAC — lower, -0.00374
- ACCTCTCA — lower, -0.271
- ATGGGGAC — lower, -0.248
- CATGATTA — higher, 0.154
- AACGCCAC — lower, -0.0427
- CAAAGACG — lower, -0.129
- AAAGCAGC — lower, -0.105
- CTCATCGA — lower, -0.0607
- ACTACCCG — lower, -0.00235
- GAACGCGC — higher, 0.313
- GCGACGAC — higher, 0.0579
- AGAGTGGA — lower, -0.188
- CCATAGAG — lower, -0.273
- GAGACCTA — lower, 0.00975
- GCCGTTCA — higher, 0.229
- ACCACAAT — lower, 0.0332
- GCGGATCC — lower, 0.016
- CCACAAGG — lower, -0.279
- CCACTAGC — lower, -0.199
- CACCGATC — lower, 0.0383
- CAATGCCC — lower, -0.149
- ACTCACAA — lower, -0.137
- AGGTGAAA — higher, 0.0593
- AGTTGTAT — lower, -0.031
- ATTACGGG — lower, 0.0111
- GATACGGA — higher, 0.285
- CTACGGAC — lower, -0.07
- ATTGGCAC — lower, -0.0954
- GAGCGTTA — lower, -0.0224
- GAATATGC — higher, 0.114
- GCAAGCCA — lower, -0.0477
- TAAGATCA — lower, -0.0601
- AGACACCA — lower, 0.0308
- ACCCCGCA — lower, -0.0609
- AGAGTACA — lower, -0.145
- CCTGTTGA — lower, -0.207
- AGGCAAAT — lower, -0.0149
- AAAAACAG — lower, -0.0439
- AACGGAAC — higher, 0.317
- TCGACCCA — lower, -0.0248
- ATGCATGC — lower, -0.149
- GACTTGCA — lower, -0.049
- AGCAATAA — lower, -0.127
- AGATCGCT — lower, 0.0294
- ATTCAAAT — lower, -0.12
- CTCGCTAA — higher, 0.337
- AGTGCTGG — lower, -0.152
- GCCAGACA — lower, -0.0174
- GGTGTCAC — lower, -0.161
- CTACTGAC — lower, -0.125
- ATACCGGG — lower, -0.0133
- AGGCGAGG — higher, 0.0681
- ACAAACTG — lower, -0.00036
- ATGTTATC — lower, -0.0316
- CGGGAAGA — higher, 0.21
